Test results taken from PubChem BioAssay AID624296 (National Center for Advancing Translational Sciences (NCATS), 2012).
The whole screen tested about 350,000 compounds, of which about 9,900 (2.8%) were called active. Inconclusive results, whose numbers are uncertain, are shown with a selection of clear calls. The call rests on the fitted dose curve; in most records, active means well fitted activation curve with a large enough effect; inconclusive means small, poorly fitted or top-dose-only effect; inactive means no such curve, though single readings can be large or run the other way. Potencies of inconclusive entries are left out as doubtful fits.

Assay: A quantitative high throughput screen for small molecules that induce DNA re-replication in MCF 10a normal breast cells. Further: nearly all actives have a fitted effect of over 50% in size. On activity, positive = re-replication: % of control where 0% means no effect.
Conditions: MCF 10A DNA re-replication, Hoechst nuclear intensity, 48 h; activity, positive = re-replication: at 46.1 µM (top of the series)
Potency means the concentration at half of the fitted maximal effect; tags describe the fitted curve by direction and shape.

SMILES	activity, positive = re-replication	Potency
Brc1ccc2c(c1)OCCOCCOCCOCCOCCO2	inactive: -2.17%	
COc1ccc(Cc2n[nH]c(=S)n2-c2ccc3c(c2)OCCO3)cc1	inactive: -4.56%	
O=C1NC(=O)c2cc([N+](=O)[O-])cc3cccc1c23		inconclusive [activator, partial curve, poor fit]
COc1ccc(COc2cc(-c3cccc(OC)c3)nc3ccc(NC(=O)c4ccc(N(C)C)cc4)cc23)cc1		active: 5.8 µM
Cc1ccc(CN2CCN(c3ccccc3)CC2)o1	inactive: -0.23%	
COc1cc(/C=N/NC(=O)c2ccccc2Cl)ccc1Oc1ccc([N+](=O)[O-])cn1		inconclusive [activator, single point]
CC(C)[C@H](NC(=O)N1CCn2c1nc1ccccc12)C(=O)N[C@@H](Cc1ccccc1)C(=O)O	inactive: -1.61%	
O=C(/C=C/c1ccc2c(c1)OCO2)NCc1ccc(F)cc1		inconclusive [activator, single point]
CCc1ccc(-c2nc(CSCC(=O)NCc3ccco3)c(C)o2)cc1		inconclusive [activator, partial curve, poor fit]
Cn1cc(CCC(=O)NCc2ccc3c(c2)OCO3)c2ccccc21	inactive: -6.37%	
Cc1nc2nc(SCC(=O)Nc3cccc(F)c3)[nH]c2cc1Br		inconclusive [activator, single point]
CC(=O)c1cc(F)c(N2CCN(C(=O)COc3ccccc3F)CC2)cc1C		inconclusive [activator, partial curve, poor fit]
Cc1ccc(-n2ccn(CC(=O)NCCc3ccccc3)c(=O)c2=O)cc1C	inactive: 2.19%	
O=C(Cc1ccc(F)cc1)Nc1nc(-c2ccc(F)c(F)c2)cs1	inactive: 2.26%	
Cc1cccc(NC(=O)Nc2cnccn2)c1C	inactive: -44.9%	
CC(C)c1nc(CNC(=O)C2CCC(=O)N(CCc3ccc(Cl)cc3)C2)no1 (stereo not given)	inactive: 4.9%	
COc1ccc2c(Cl)c(C(=O)N/N=C/c3c(C)[nH]c4ccccc34)sc2c1		inconclusive [activator, full curve]
COc1ccc(-c2c(C)nc3c(-c4ccccn4)cnn3c2N)cc1		inconclusive [activator, single point]
Cc1cc(C)c(OCC(=O)OCC(=O)NCC2CCCCC2)c(C)c1	inactive: -1.44%	
CC1=Nc2ccccc2N=C(NC(=O)CSC(=S)N2CCCCC2)C1c1ccccc1 (stereo not given)	inactive: 29.7%	
COc1ccccc1OCC(=O)NCC1CCCN(Cc2cnn(C)c2C)C1 (stereo not given)	inactive: 3%	
CCc1ccccc1NC(=O)CNCC(=O)Nc1ccccc1CC		inconclusive [activator, single point]
C=CCOC(=O)C1=C(C)NC(SCC(=O)NC(=O)OCC)=C(C#N)C1c1cccnc1 (stereo not given)		inconclusive [activator, partial curve, poor fit]

SMILES	activity, positive = re-replication	Potency
O=C(NC1CCCC1)C(c1ccc(F)cc1)N(C(=O)Cc1cccs1)c1ccc2c(c1)OCCO2 (stereo not given)		inconclusive [activator, partial curve, poor fit]
COc1ccccc1CNC(=O)C1CCN(S(=O)(=O)c2ccc3c(c2)OCCCO3)CC1	inactive: -0.288%	
Cc1cc(C)c(S(=O)(=O)N2CCCOC2CNC(=O)C(=O)NCc2cccs2)c(C)c1 (stereo not given)	inactive: -8.25%	
CCOc1ccc(C=NN2CCCCCC2)cc1OCC		inconclusive [activator, single point]
COc1cc(NC(=O)c2cccs2)c(OC)cc1NC(=O)c1ccco1	inactive: 12%	
COc1ccc(C2=NO[C@@H]3C(=O)N(c4ccc(C)cc4C)C(=O)[C@H]23)cc1OC	inactive: -2.59%	
CCOc1ccc(S(=O)(=O)N(C)c2ccc(OCC(=O)Nc3nc4ccccc4s3)cc2)cc1		inconclusive [activator, partial curve, poor fit]
CCCSc1nnc(CSc2nc3nc(C)cc(C)n3n2)o1		inconclusive [activator, single point]
CCN1CCN(CCOc2ccc(Br)cc2C)CC1		inconclusive [activator, single point]
O=C(O)CC(NC(=O)c1sc2ccccc2c1Cl)c1ccc(OC2CCCC2)cc1 (stereo not given)		inconclusive [activator, single point]
O=C(CCN1C(=O)/C(=C/c2ccccc2)SC1=S)N[C@@H](CO)Cc1ccccc1		inconclusive [activator, single point]
C=CCn1c(SCC(=O)N(C)c2c(N)n(Cc3ccccc3)c(=O)[nH]c2=O)nnc1-c1ccccc1OC	inactive: -0.945%	
O=C(c1ccc(S(=O)(=O)N2CCCCC2)cc1)N1CCN(CCN2C(=O)c3cccc4cccc(c34)C2=O)CC1	inactive: -1%	
CN1CCN(CC(=O)Nc2ccc(Oc3ccccc3)cc2)CC1		inconclusive [activator, partial curve, poor fit]
CC1CCCCN1CCNC(=O)c1cc2c(=O)n(C)c3ccccc3c2n1C (stereo not given)		inconclusive [activator, single point]
CCN1C(=O)[C@H]2[C@@H](c3ccc(-c4ccc(Cl)c(Cl)c4)c(OC)c3)N[C@@](C)(C(=O)OC)[C@H]2C1=O		inconclusive [activator, partial curve, poor fit]
O=c1c(/C=N/O)c(Nc2ccccc2)nc2ccccn12		inconclusive [activator, single point]
COc1ccc(Nc2nc(N)nc(CSC(=S)N3CCCCC3C)n2)cc1 (stereo not given)		inconclusive [activator, partial curve, poor fit]
O=C(N=c1ccn(-c2nc3ccccc3nc2NS(=O)(=O)c2ccccc2)cc1)c1ccccc1Cl		inconclusive [activator, single point]
CCS(=O)(=O)c1nc(S(=O)(=O)c2ccc(Cl)cc2)c(N2CCc3ccccc3C2)s1	inactive: 9.52%	
COCc1nnc(NC(=O)CCCCCN2C(=O)c3ccccc3C2=O)s1		inconclusive [activator, partial curve, poor fit]
COC(=O)[C@]1(C)N[C@H](CN(C)S(=O)(=O)c2ccccc2)[C@@H]2C(=O)N(Cc3ccccc3)C(=O)[C@@H]21	inactive: 7.31%	
